# PMC4336329 (PLoS ONE, 2015)
# Hit rate of the full screen: of about 310,000 compounds, about 14,000 (4.5%) showed an effect of 50% or more. Effects have a minus sign here. The list shows a part of the results.
# Target: human ether-à-go-go-related gene (hERG) potassium channel (human, UniProt Q12809)
# Experiment: primary screen, population patch clamp on CHO cells stably expressing hERG
# 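Also: peak tail current of the secondary pulse compared with the same well before compound.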
# human ether-à-go-go-related gene (hERG) potassium channel, sequence (Q12809 whole entry, looked up): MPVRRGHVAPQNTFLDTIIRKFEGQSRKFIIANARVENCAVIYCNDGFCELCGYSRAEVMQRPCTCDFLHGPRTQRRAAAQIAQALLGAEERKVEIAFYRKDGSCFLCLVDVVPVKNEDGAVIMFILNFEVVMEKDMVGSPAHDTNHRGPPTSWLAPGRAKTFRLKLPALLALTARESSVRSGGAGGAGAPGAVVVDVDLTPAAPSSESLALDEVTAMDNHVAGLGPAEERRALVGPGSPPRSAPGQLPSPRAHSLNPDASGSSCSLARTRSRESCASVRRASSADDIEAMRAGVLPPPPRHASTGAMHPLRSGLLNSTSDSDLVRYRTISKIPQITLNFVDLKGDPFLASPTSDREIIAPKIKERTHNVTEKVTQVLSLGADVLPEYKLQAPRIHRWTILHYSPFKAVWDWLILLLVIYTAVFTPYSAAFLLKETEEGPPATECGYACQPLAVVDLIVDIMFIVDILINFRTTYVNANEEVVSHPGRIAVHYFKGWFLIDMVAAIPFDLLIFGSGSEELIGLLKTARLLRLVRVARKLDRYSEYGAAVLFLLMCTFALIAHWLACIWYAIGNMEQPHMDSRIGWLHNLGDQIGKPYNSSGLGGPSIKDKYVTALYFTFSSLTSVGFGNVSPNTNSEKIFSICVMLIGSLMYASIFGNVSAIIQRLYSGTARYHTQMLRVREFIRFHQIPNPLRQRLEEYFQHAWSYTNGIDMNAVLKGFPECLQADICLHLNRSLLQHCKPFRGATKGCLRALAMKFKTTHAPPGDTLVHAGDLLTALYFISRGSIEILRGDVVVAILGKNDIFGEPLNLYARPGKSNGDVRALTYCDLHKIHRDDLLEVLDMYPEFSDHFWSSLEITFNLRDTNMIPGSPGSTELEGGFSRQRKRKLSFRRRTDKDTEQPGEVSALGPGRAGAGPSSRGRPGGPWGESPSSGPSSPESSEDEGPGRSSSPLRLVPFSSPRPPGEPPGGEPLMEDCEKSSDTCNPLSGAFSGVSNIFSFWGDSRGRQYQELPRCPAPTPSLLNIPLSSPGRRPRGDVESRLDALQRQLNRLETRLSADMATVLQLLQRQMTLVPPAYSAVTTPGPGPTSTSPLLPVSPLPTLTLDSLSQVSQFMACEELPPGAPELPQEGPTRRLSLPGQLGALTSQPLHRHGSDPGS
row,SMILES,"hERG current change (%, negative = inhibition) at 10uM [%]"
1,O=C(CN1CCN(Cc2ccccc2F)C1=O)NCc1ccco1,2.59
2,CCOC(=O)c1ccc(-c2c(-c3ccccc3OC)oc3ccccc23)cc1F,11.6
3,C[N+](C)(C)CCCCCC[N+](C)(C)C.[Br-],4.51
4,COc1ccc(OC)c(-c2cc(C(F)(F)F)c3c(n2)sc2c(O)cc(=O)[nH]c23)c1,18.9
5,COc1cccc(Cn2c(=O)c3ccccc3n3nc(C)cc23)c1,11.4
6,COCCN(CCOC)S(=O)(=O)c1ccc(C(=O)NC2CCN(Cc3ccccc3)CC2)cc1.Cl,-29.1
7,Cc1ccc2c(c1)[C@H]1[C@H](CO2)[C@H](c2ccccc2)[C@]2(C)C(=O)NCC(=O)N12,9.76
8,CCCCCSc1nc2c(c(=O)[nH]c(=O)n2C)n1CCc1ccccc1,-1.1
9,O=C(O)Cc1ccc(NC(=O)c2cccc(NC(=O)c3ccco3)c2)cc1,16
10,CCc1nnc(SCC(=O)N2CCc3ccccc32)n1CC,5.91
11,CCOc1ccc(-n2c(-c3ccccc3)nnc2-c2ccccc2)cc1,-6.7
12,C/C(=N\NC(=O)c1cccc(S(=O)(=O)N2CCOCC2)c1)c1ccc(C#N)cc1,-52.6
13,C=CCOc1ccc(C(=O)Nc2ccccc2C(=O)NCc2cccnc2)cc1,4.02
14,OCCc1ccccc1,16.5
15,O=c1cc(-c2ccccc2)nc(Cc2c(Cl)cccc2Cl)[nH]1,-1.98
16,COc1cc(-c2nc(N)n[nH]2)cc(OC)c1OC,17.7
17,O=C(NCc1ccccc1)N1CCN(CCO)CC1,14.8
18,COc1ccc(S(=O)(=O)N2CCN(C(=O)CCOc3ccccc3)CC2)cc1OC,-23.6
19,CNS(=O)(=O)c1cccc(C(=O)NC2CCCc3ccccc32)c1 (centres unmarked),-10.3
20,CC(CCc1ccccc1)NC(=O)CN1C(=O)NC2(CCCCC2C)C1=O (centres unmarked),-16.3
21,S=C1NC[C@H](CC2CCCCC2)N1CCCCC1CCCCC1,13.4
22,CCCCn1c(SCc2ccc(Cl)cc2)nc2c1c(=O)[nH]c(=O)n2C,-4.37
23,Cc1cc(=O)oc2c(C)c(OCC(=O)N3CCC(C(=O)O)CC3)ccc12,5.01

row,SMILES,"hERG current change (%, negative = inhibition) at 10uM [%]"
1,COc1ccc(-c2c(C#N)c(N)nc3c2c(=O)n(C)c(=O)n3C)cc1Cl,-24.5
2,Cc1ccc(CCNC(=O)C2CCN(S(=O)(=O)N3CCCCC3)CC2)cc1,13.3
3,O=C(CSc1nccn1-c1ccc(Cl)cc1)N1CCCc2ccccc21,-11.7
4,Cc1ccccc1N1C(=O)c2ccccc2NC1c1ccncc1 (centres unmarked),8.69
5,O=C(CCN1CCCCC1)c1ccc2c(c1)OCO2,-0.169
6,Cc1ccc(NCc2nnc3n2CCCCC3)c(C)c1,12.7
7,COc1ccc(C(=O)COC(=O)c2ccc3c(c2)OCO3)c(OC)c1,-16.9
8,O=C1NC(CCc2ccccc2)C(=O)N1Cc1ccccc1Cl (centres unmarked),-4.41
9,COc1ccc(CNC(=S)NNC(=O)c2cc3ccccc3o2)cc1,-43.7
10,COc1ccc(CCC(=O)OCC(=O)Nc2c(C)n(C)n(-c3ccccc3)c2=O)cc1,-11
11,CCOC(=O)c1[nH]c2ccc(F)cc2c1NC(=O)c1cc(OC)c(OC)c(OC)c1,6.93
12,Clc1ccccc1-c1nc2ccccc2c2nncn12,-6.39
13,CC(NC(=O)Cc1ccccc1)C(c1ccccc1)N1CCOCC1 (centres unmarked),30.9
14,COCCNC(=O)COc1ccccc1C,6.6
15,Cc1ccc(/C=C2\C(=O)NC(=O)N(CCc3ccc(F)cc3)C2=O)s1,19.5
16,O=C(CNC(=O)Cc1cccc2ccccc12)NCc1ccccc1F,14.8
17,CCN(CC)C(=O)C(Oc1ccc(C)nc1[N+](=O)[O-])c1ccccc1 (centres unmarked),19.3
18,COc1ccccc1-n1cnc2cc(NC(=O)c3ccco3)ccc21,-7.1
19,O=C(NCc1ccc(Cl)cc1)c1ccc(CNc2c(N3CCCC3)c(=O)c2=O)cc1,12.9
20,c1ccc2c(c1)nnn1c3ccccc3nc21,-6.29
21,Cc1cccc(C)c1NC(=O)CN(C)C(=O)c1ccc(N2C(=O)CCC2=O)cc1,-10.8
22,CCC(C)NC(=O)c1cn(-c2cccc(OC)c2)c(=O)c2ccccc12 (centres unmarked),3.66
23,Cc1c(N)ccc(-n2nc3ccccc3n2)c1C,-0.131

row,SMILES,"hERG current change (%, negative = inhibition) at 10uM [%]"
1,CC1(C)CC(=O)C(N=Nc2ccc(F)cc2)=C(O)C1,-4.21
2,CCNC(=O)NC(=O)C(C)Sc1ccc2c(c1)OCCO2 (centres unmarked),1.37
3,COCCn1c(C)cc(C(=O)COc2ncnc3ccc(Br)cc23)c1C,3.3
4,CN(C)CCCN(C(=O)/C=C/c1cccs1)c1nc2ccc(F)cc2s1.Cl,-41
5,CC(=O)c1c(N2CCN(C(=O)C3CCCO3)CC2)nc(=S)n(-c2ccccc2)c1C (centres unmarked),1.07
6,CCOc1ccc(Br)cc1C(=O)N/N=C/c1ccc([N+](=O)[O-])cc1,9.42
7,Cc1ccc(S(=O)(=O)N2CCN(CC(=O)Nc3ccnn3C3CCCC3)CC2)cc1,-7.38
8,COc1ccc(C(=O)N/C(=C\c2ccccc2)C(=O)NCCCn2ccnc2)cc1,-55.8
9,CCOC(=O)c1sc2nc(CC(=O)OC)nc(N(C)CCc3ccccn3)c2c1C,-37.8
10,NC(=O)c1cc([N+](=O)[O-])ccc1NCc1ccc(F)cc1,-12.5
11,Cc1onc(-c2ccccc2)c1C(=O)N1CCC(CO)(Cc2ccccc2)CC1,12.9
12,CCC1CCCCN1CCCNC(=O)c1csc2c1CCCCC2 (centres unmarked),-56.7
13,CCCC(=O)N1CCN(c2nc3c(OC)ccc(Cl)c3s2)CC1,-29.2
14,Cc1cccc(C)c1NC(=O)NC1(C(=O)NCCN2CCOCC2)CCCCC1,15.6
15,C[N+](C)(C)CCOc1ccc([N+](=O)[O-])cc1.[Br-],-28.5
16,O=C(NCC1CCCN1S(=O)(=O)c1cccs1)c1ccc(Cl)cc1 (centres unmarked),-32.7
17,COC(=O)c1nn(-c2ccc(OC)cc2)ccc1=O,13.5
18,O=c1c2ccccc2nc(-c2ccco2)n1-c1ccccn1,0.658
19,Cl.Cn1c(=O)c2c(nc(N3CCOCC3)n2CCCNC2=NCCC2)n(C)c1=O,17.9
20,CCOC(=O)c1sc(NC(=O)c2ccc(S(=O)(=O)N3CCCCC3)cc2)nc1-c1ccccc1,18.1
21,COc1cc(C)c(NC(=O)COc2ccc3c(c2)CCC3)cc1OC,-5.74
22,O=C(CNC(=O)Cn1ccc2ccccc2c1=O)NCCCN1CCCCCC1,5.29
23,O=C(NCc1ccc(OC(F)(F)F)cc1)C1CC2Cn3c(nc4ccccc43)C2N1c1ccccc1 (centres unmarked),-61.3

row,SMILES,"hERG current change (%, negative = inhibition) at 10uM [%]"
1,Nc1c(-c2ccccc2)c(CN2CCOCC2)nn1-c1ccc(C(=O)O)cc1.O=S(=O)(O)O,-10.1
2,C/C(=N\OCc1ccc(C#N)cc1)c1ccccc1,12.1
3,Clc1ccc(-n2cccc2/C=N/n2cnnc2)cc1,-6.08
4,O=C(CCC(=O)c1cccs1)Nc1ccc(F)c(F)c1F,0.0728
5,CC(Sc1nnc(NC2CCCCC2)s1)C(=O)N1CCOCC1 (centres unmarked),11.7
6,CCOc1ccc(N(CC(=O)NCCSCc2ccccc2Cl)S(C)(=O)=O)cc1,-4.64
7,O=S(=O)(c1cccc2cccnc12)N1CCN(Cc2ccccc2)CC1,-0.188
8,Cc1ccc(-c2nn3c(C)nnc3c3ccccc23)cc1S(=O)(=O)NCc1ccco1,-33.3
9,CCCCN(C(=O)c1ccc(C)c(S(=O)(=O)N2CCOCC2)c1)c1c(N)n(CCCC)c(=O)[nH]c1=O,-12.4
10,O=C(O)/C=C/c1nc(-c2ccccc2)n2ccccc12,-33.3
11,CC(C)C[C@@H](CN=[N+]=[N-])N1CCN(Cc2ccccc2)CCC1=O,-3.5
12,CCOc1ccccc1NC(=O)Cn1nc(-c2ccco2)ccc1=O,-2.85
13,O=C(CCN1C(=O)COc2ccccc21)N1CCN(c2ccccc2)CC1,-15
14,COC(=O)c1ccc(CSc2nnnn2Cc2ccccc2)cc1,-9.3
15,CCOc1ccc(-c2nnn(CC(=O)c3ccc4c(c3)OCCO4)n2)cc1,-3.36
16,O=C(CN(c1ccc(F)cc1)S(=O)(=O)c1ccc2c(c1)OCCO2)Nc1ccc2c(c1)OCO2,14.4
17,CCCc1nc2c(c(=O)c3ccccc3n2C)c(=O)n1-c1ccc(F)cc1,0.271
18,CCOc1ccc(NC(=O)CSc2nnc(CNC(=O)c3cccs3)o2)cc1,-17.4
19,COc1ccc(S(=O)(=O)N/N=C(/C)c2ccncc2)cc1,11.7
20,Cc1nn(C(C)C(=O)NCCc2cccs2)c(=O)c2nn(-c3ccccc3)c(C)c12 (centres unmarked),-5.1
